PubChem BioAssay AID651820 (National Center for Advancing Translational Sciences (NCATS), 2012)
Several values for one entry are separate records, joined by “and”; a condition that tells them apart may be missing. Identical values can stand only once. About 12,000 (3.5%) of roughly 340,000 compounds were called active. The shares of active, inactive and inconclusive entries below differ from those in the screen. Calls come from the whole dose curve; as a rule, active = well fitted inhibition curve with a large enough effect; inconclusive = small, poorly fitted or top-dose-only effect, or another doubt; inactive = no such curve, though single readings can be large or run the other way. A potency beside an inconclusive call is a rough fit, not a confirmed value.

assay: qHTS Assay for Inhibitors of Hepatitis C Virus (HCV); details: Huh7.5.1 HCVcc-Cre (HCVcc is cell-culture hepatitis C virus) infection, luciferase reporter, 44 h; activity change, negative = inhibition: at 41.8 µM (top of the series) unless noted
Method in brief: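 Infectious HCVcc-Cre (~0.5 moi) was added to cells just after compound, with cells seeded 4 h earlier at 1,000 per well. Luciferase activity after 44 h culture reported infection; substrate was incubated 15 min at room temperature before reading.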
% is set by controls: 0 for no effect and ±100 for the full control effect; potency is the fitted concentration of half-maximal effect; tags give direction and shape of the fitted curve.

SMILES | Potency | activity change, negative = inhibition
CCOC(=O)c1sc(NC(=O)C(CC)Sc2nccn2C)nc1C (centres undefined) | inconclusive: 31.6 µM [inhibitor, single point] | –
COc1ccc(C(=O)Nc2cccc3cccnc23)cc1OC | inconclusive: 31.6 µM [inhibitor, single point] | –
COc1ccccc1C(=O)NCCC(=O)N1CCN(c2cccc(C(F)(F)F)c2)CC1 | – | inactive: 8.95%
COc1ccc(NC(=O)N2CCC(C(=O)c3ccc4c(c3)OCCO4)CC2)cc1 | inconclusive: 6.31 µM [inhibitor, full curve, poor fit] | –
COc1ccc(-c2csc3ncnc(N4CCN(S(=O)(=O)c5cccc(Br)c5)CC4)c23)cc1 | inconclusive: 11.2 µM [inhibitor, partial curve] | –
O=C(N/N=C/c1ccc(Cl)cc1)c1sccc1OCc1ccc(F)cc1 | inconclusive: 0.562 µM [inhibitor, full curve] | –
Cc1onc(-c2ccccc2Cl)c1C(=O)Nc1cccc(-c2cn3cccnc3n2)c1 | inconclusive: 31.6 µM [inhibitor, single point] | –
O=S(=O)(NCc1ccc(F)cc1)c1ccc(-n2cnnn2)cc1 | – | inactive: 13.5%
N#CC1=C(Nc2ccccc2)SC=C(c2ccc(Cl)c(Cl)c2)N=C1N1CCOCC1 | inconclusive: 31.6 µM [inhibitor, single point] | –
COc1ccc(-n2nc(C(=O)NCC(=O)NCC3COc4ccccc4O3)c3ccccc3c2=O)cc1 (centres undefined) | – | inactive: -27.1%
CC(C(=O)O)n1c2ccccc2c2cnn(C)c(=O)c21 (centres undefined) | – | inactive: 6.04%
O=C(OC12CC3CC(CC(C3)C1)C2)c1ccc(NCc2cc(O)ccc2O)cc1 | inconclusive: 0.501 µM [inhibitor, full curve] | –
Clc1ccc(Cl)c2sc(N3CCCC3)nc12 | inconclusive: 15.8 µM [inhibitor, single point] | –
COc1cc(OC)cc(C(=O)Nc2nc(CC(=O)NCc3ccccc3OC)cs2)c1 | inconclusive: 2.82 µM [inhibitor, partial curve] | –
OCCn1c(-c2ccc(F)cc2)csc1=Nc1ccccc1 | inconclusive: 12.6 µM [inhibitor, single point] | –
CCOc1ccc(S(=O)(=O)N2CCN(C(=O)c3cc(-c4ccccc4)nn3-c3ccccc3)CC2)cc1 | inconclusive: 4.47 µM [inhibitor, full curve] | –
Nc1ccccc1SCC(=O)N1CCc2ccccc21 | inconclusive: 3.16 µM [inhibitor, single point] | –
O=C1C2C3C=CC(CC3)C2C(=O)N1c1ccccc1 (centres undefined) | – | inactive: 9.56%
COc1ccc(C(=O)N(Cc2ccco2)Cc2cccs2)c(O)c1 | – | inactive: -14.4%
Cc1cc(N(C)C)nc(SC(C)C)n1 | inconclusive: 31.6 µM [inhibitor, single point] | –
O=C(Nc1ccccn1)c1ccc([N+](=O)[O-])cc1Cl | – | inactive: -2.35%
COc1ccc(C(=O)NC(=S)Nc2cccc3ncccc23)cc1[N+](=O)[O-] | inconclusive: 20 µM [inhibitor, partial curve, poor fit] | –
Cc1cccc(C)c1OCC(=O)Nc1cccc(NC(=O)c2ccco2)c1 | active: 11.2 µM | –

SMILES | Potency | activity change, negative = inhibition
COc1ccccc1N1CCN(CC(=O)c2c[nH]c3ccccc23)CC1 | inconclusive: 31.6 µM [inhibitor, single point] | –
COc1cccc2c1OC[C@@H](CO)[C@H]2N(C)C(=O)Nc1ccc(Cl)cc1Cl | inconclusive: 10 µM [inhibitor, partial curve] | –
O=C(CCNS(=O)(=O)c1ccccc1)NCC1CCCCC1 | inconclusive: 3.16 µM [inhibitor, single point] | –
COC(CN(C)C(=O)c1cn(C)c2ccc(S(=O)(=O)N(C)C3CCCCC3)cc2c1=O)OC | – | inactive: -1.66%
CCC(O)(CCN1CCCCC1)c1ccccc1 (centres undefined) | – | inactive: -3.36%
CC1CN(C(=O)CSc2nc(-c3ccccc3)cs2)CC(C)O1 (centres undefined) | – | inactive: 22.8%
Cc1ccccc1NC(=S)N(CCc1c(C)[nH]c2ccc(F)cc12)Cc1ccncc1 | inconclusive: 14.1 µM [inhibitor, partial curve] | –
COc1ccccc1NS(=O)(=O)c1cccc(NC(=O)Nc2cccc(Cl)c2)c1 | inconclusive: 22.4 µM [inhibitor, partial curve] | –
O=C(OCCOc1cccc(Cl)c1)c1ccc(F)c(S(=O)(=O)N2CCOCC2)c1 | inconclusive: 12.6 µM [inhibitor, single point] | –
O=C1c2ccccc2S(=O)(=O)N1CC(O)COc1ccc(Cl)cc1 (centres undefined) | – | inactive: 12.7%
Cc1sc2nc(SCC(=O)Nc3cccc(C(=O)O)c3)[nH]c(=O)c2c1C | – | inactive: -13.7%
COc1ccc(Cl)cc1NC(=O)Nc1ccc(C(=O)N2CCOCC2)cc1 | inconclusive: 11.2 µM [inhibitor, partial curve] | –
CC(C)Nc1ccc(C(CC(N)=O)NC(=O)Cc2ccc(Cl)cc2)cc1[N+](=O)[O-] (centres undefined) | – | inactive: 17.7%
Nc1nc(NCCc2ccccc2)nc(NCc2ccccc2)c1[N+](=O)[O-] | inconclusive: 31.6 µM [inhibitor, single point] | –
CN(C)CCCN1c2ccccc2Sc2ccc(Cl)cc21 | inconclusive: 10 µM [inhibitor, partial curve] | –
CCN(C[C@H]1N[C@@](C)(C(=O)OC)[C@H]2C(=O)N(Cc3ccccc3)C(=O)[C@@H]12)S(=O)(=O)c1ccc(F)cc1 | inconclusive: 5.62 µM [inhibitor, single point] | –
CC1(C)CC(=O)C2=C(C1)OC(N)=C(C#N)C2c1cn(-c2ccccc2)nc1-c1ccc(F)cc1 (centres undefined) | inconclusive: 3.55 µM [inhibitor, single point] | –
Cc1cccc(N=N/C(=C\O)C(=O)c2cccs2)c1 | inconclusive: 22.4 µM [inhibitor, single point] | –
O=C(NCc1cccs1)c1cc(-c2ccccc2)nn1CC1CC(c2cccc([N+](=O)[O-])c2)=NO1 (centres undefined) | inconclusive: 20 µM [inhibitor, single point] | –
COc1ccc(COC(=O)NC2CCN(S(=O)(=O)c3ccc(OC)cc3)CC2)cc1 | inconclusive: 31.6 µM [inhibitor, single point] | –
CCOC(=O)c1nn(-c2ccccc2)c2nnc(Cc3ccc(C)cc3)c(=O)n12 | – | inactive: 27.2%
CCC(CO)Oc1cc(NCc2cccc(O)c2)c2ncn(C(C)C)c2c1 (centres undefined) | inconclusive: 25.1 µM [inhibitor, partial curve] | –
CC(C)N(C(=O)COC(=O)[C@H](C)NC(N)=O)c1ccccc1 | – | inactive: 1.45%

SMILES | Potency | activity change, negative = inhibition
CCOC(=O)c1cnc(SCC(=O)Nc2ccc(N3CCOCC3)c(Cl)c2)nc1N | – | inactive: 0.603%
CC(=O)c1cccc(NC(=O)c2ccc3c(c2)CCCC3)c1 | active: 11.2 µM | –
Nc1nc(-c2cccs2)c(NC(=O)c2ccccc2)s1 | inconclusive: 31.6 µM [inhibitor, single point] | –
O=C(CSc1nc2ccccc2o1)N1N=C(c2cccs2)CC1c1ccc(F)cc1 (centres undefined) | inconclusive: 14.1 µM [inhibitor, single point] | –
CCOc1cc(/C=C/C(=O)c2ccc3c(c2)OCCO3)ccc1OCC(=O)N(C)C | inconclusive: 3.16 µM [inhibitor, single point] | –
COc1ccc(NC(=S)N=Nc2c(O)[nH]c3ccccc23)cc1 | inconclusive: 31.6 µM [inhibitor, single point] | –
C[C@H]1CN([C@@H](C)CO)C(=O)c2cccc(NC(=O)Nc3ccc(C(F)(F)F)cc3)c2O[C@@H]1CN(C)Cc1ccc(Cl)c(Cl)c1 | inconclusive: 7.94 µM [inhibitor, single point] | –
Cc1cc(C)nc(N2CCC(C(=O)Nc3ccc(Oc4ccccc4)cc3)CC2)n1 | inconclusive: 562 nM [inhibitor, full curve, poor fit] and inconclusive: 31.6 µM [inhibitor, single point] | –
O=C(O)c1cccc(COc2cccc3ccccc23)c1 | inconclusive: 0.501 µM [inhibitor, full curve, poor fit] | –
CCOC(=O)Cc1csc(NC(=O)C(CC(C)C)NC(=O)C2CCCCC2)n1 (centres undefined) | active: 14.1 µM | –
Cc1ccc(C)c(NS(=O)(=O)c2ccc(-c3ccc(=O)[nH]n3)o2)c1 | – | inactive: 6.81%
Cc1ccc(S(=O)(=O)NC(=NC2CCCCC2)c2ccc(F)cc2)cc1 | – | inactive: -2.82%
CCc1ccc(NC(=O)NCCN2CCc3ccccc3C2)cc1 | – | inactive: -8.15%
Nc1nonc1-n1nnc(C(=O)N/N=C/c2cccc(Cl)c2Cl)c1CN1CCCC1 | inconclusive: 22.4 µM [inhibitor, partial curve, poor fit] | –
Cc1cc2oc(=O)cc(CN(C)Cc3cccc(F)c3)c2cc1Cl | – | inactive: -22.1%
CCn1c2ccccc2c2n[nH]c(=S)nc21 | – | inactive: 1.81%
CCOC(=O)Nc1ccc2c(CN3CCN(S(=O)(=O)c4ccccc4)CC3)cc(=O)oc2c1 | inconclusive: 2.82 µM [inhibitor, partial curve] | –
CCn1nc(C)cc1C(=O)Sc1cccc(Br)c1 | – | inactive: 4.6%
COc1ccc(-c2csc(NC(=O)C3CSC4(C)CCC(=O)N34)n2)c(OC)c1 (centres undefined) | active: 8.91 µM | –
COc1ccc(OC)c(-c2cc(C(=O)N3CCCc4ccccc43)no2)c1 | inconclusive: 1 µM [inhibitor, full curve] | –
O=C(Nc1cc(Sc2nc3ccccc3s2)cc([N+](=O)[O-])c1)c1cccc(F)c1F | inconclusive: 6.31 µM [inhibitor, full curve, poor fit] | –
COc1cccc(-c2ccc(NC(=O)C3CCCN(Cc4ccco4)C3)cc2)c1 (centres undefined) | inconclusive: 12.6 µM [inhibitor, partial curve] | –
Brc1ccc(CN2C3=NCCCN3c3ccccc32)cc1 | inconclusive: 10 µM [inhibitor, partial curve] | –
